Laboratory results reported in article PMC4336329 (PLoS ONE, 2015).
Hit rate of the full screen: of about 310,000 compounds, about 14,000 (4.5%) showed an effect of 50% or more. Effects have a minus sign here. This is one part of the list.

These molecules were tested against human ether-à-go-go-related gene (hERG) potassium channel (human, UniProt Q12809) (assay: primary screen, population patch clamp on CHO cells stably expressing hERG).
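Further: peak tail current of the secondary pulse compared with the same well before compound.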

Chain of human ether-à-go-go-related gene (hERG) potassium channel (Q12809 whole entry, looked up): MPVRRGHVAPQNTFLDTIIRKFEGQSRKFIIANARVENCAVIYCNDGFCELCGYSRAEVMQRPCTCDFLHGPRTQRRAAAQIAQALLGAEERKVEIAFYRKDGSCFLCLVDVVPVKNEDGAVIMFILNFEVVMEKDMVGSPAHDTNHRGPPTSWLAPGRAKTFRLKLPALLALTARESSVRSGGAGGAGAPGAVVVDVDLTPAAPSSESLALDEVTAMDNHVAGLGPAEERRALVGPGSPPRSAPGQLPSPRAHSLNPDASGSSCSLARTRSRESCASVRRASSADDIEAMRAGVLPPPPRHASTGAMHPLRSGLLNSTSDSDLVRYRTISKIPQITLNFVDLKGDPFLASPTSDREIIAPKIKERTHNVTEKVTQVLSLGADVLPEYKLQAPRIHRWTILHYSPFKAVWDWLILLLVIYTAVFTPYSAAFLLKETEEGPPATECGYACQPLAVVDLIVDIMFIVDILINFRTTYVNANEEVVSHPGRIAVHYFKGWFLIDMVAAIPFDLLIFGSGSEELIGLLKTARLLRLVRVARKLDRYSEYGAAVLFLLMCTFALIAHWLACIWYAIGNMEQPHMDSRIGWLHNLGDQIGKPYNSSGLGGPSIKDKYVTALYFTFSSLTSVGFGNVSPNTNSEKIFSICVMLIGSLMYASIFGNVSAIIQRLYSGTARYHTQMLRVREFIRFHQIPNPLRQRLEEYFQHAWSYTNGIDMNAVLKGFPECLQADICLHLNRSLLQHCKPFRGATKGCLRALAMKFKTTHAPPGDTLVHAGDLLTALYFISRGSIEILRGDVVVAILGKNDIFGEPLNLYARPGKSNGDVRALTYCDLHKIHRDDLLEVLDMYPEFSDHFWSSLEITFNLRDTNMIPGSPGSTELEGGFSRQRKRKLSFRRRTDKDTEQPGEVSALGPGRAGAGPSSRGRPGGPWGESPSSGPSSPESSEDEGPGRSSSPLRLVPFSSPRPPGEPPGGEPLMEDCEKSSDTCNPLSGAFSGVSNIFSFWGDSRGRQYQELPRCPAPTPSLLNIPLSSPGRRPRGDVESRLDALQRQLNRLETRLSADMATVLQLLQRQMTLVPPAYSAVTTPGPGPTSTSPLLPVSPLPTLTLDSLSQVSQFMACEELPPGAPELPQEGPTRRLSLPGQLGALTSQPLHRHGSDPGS

Compound | hERG current change (%, negative = inhibition) at 10uM
O=C(c1ccc2nc[nH]c2c1)N1CCN(c2cccc(Cl)c2)CC1 | -4.43%
CCOC(=O)c1cc2sc(C)cc2n1CC(=O)NCc1ccc(F)cc1 | -2.17%
CN1CCN(C(=O)CCN2C(=O)c3ccccc3S2(=O)=O)CC1.Cl | 6.77%
CC(C(=O)O)n1c(-c2ccn[nH]2)n[nH]c1=S (centres unmarked) | 37.3%
Cc1nc(-c2cc(-c3nc(-c4ccc(C(C)(C)C)cc4)no3)no2)cs1 | 17.1%
CS(=O)(=O)Nc1ccc(N2CCN(c3ccc(C(F)(F)F)cn3)CC2)nc1 | -4.03%
CS(=O)(=O)CC(=O)Nc1ccc2nc3n(c(=O)c2c1)CCCCC3 | 8%
Cc1cc(Cl)ccc1C(=O)C1CCCN(C(=O)c2cccnc2C)C1 (centres unmarked) | -37%
CC12CC3CC(C)(C1)CC(CN1CCOCC1)(C3)C2.Cl | -0.276%
CC(C)C(=O)Nc1nc(-c2ccccc2)ns1 | -14.5%
CCOC(=O)C1=NNC2(c3ccc(Cl)cc3)C(=O)N(c3cc(C)cc(C)c3)C(=O)C12 (centres unmarked) | -14.8%
CCOc1ccc(N(C(=O)c2ccc3c(c2)OCO3)C2C=CS(=O)(=O)C2)cc1 (centres unmarked) | -24.1%
Cc1c(C(=O)N2CCN(C)CC2)oc2ccc(S(=O)(=O)N3CCOCC3)cc12 | 6.09%
COC(=O)Nc1ccc(S(=O)(=O)N2CCC(C(=O)NC3CCCCC3)CC2)cc1 | 18.6%
CCOc1ccc(N(CC(=O)Nc2ccccc2C(=O)N2CCCC2)S(C)(=O)=O)cc1 | 2.43%
Cc1nc2cc(C(F)(F)F)ccc2n1C1CCN(Cc2nnnn2Cc2cccs2)CC1 | -36.6%
CCOC(=O)c1cnc2ccc(C)cc2c1Sc1ccc(F)cc1 | -1.1%
COc1ccc(NC(=O)CSc2ccc3nnc(CCNC(=O)c4ccccc4)n3n2)cc1 | -16.5%
C(=C\c1ccccc1)/CNn1cnnc1 | 11.9%
COc1cc(C(=O)COC(=O)Cc2cnc3sccn23)cc(OC)c1OC | 11%
CC(=O)Nc1ccc(NC(=O)c2ccco2)cc1 | 4.54%
C=CCc1ccc(OCCCCN2CCC(C)CC2)c(OC)c1 | -69.6%

Compound | hERG current change (%, negative = inhibition) at 10uM
COc1ccc(Cl)cc1NC(=O)NC(C)C(C)(C)C (centres unmarked) | 5.53%
Cc1ccc(-n2ncc3c(N4CCC5(CC4)OCCO5)ncnc32)c(C)c1 | 14.5%
CCOc1cc(/C=C2\C(=N)N3N=C(S(C)(=O)=O)SC3=NC2=O)ccc1OCCOc1cccc(OC)c1 | 13.2%
O=C(O)c1cnn2c(C(F)(F)F)cc(-c3ccco3)nc12 | 13.4%
COc1cc(NC(=O)c2csc(-c3ccncc3)n2)cc(C(=O)Nc2cccc(C(F)(F)F)c2)c1 | -48.7%
COc1ccc(N2CCCCn3c2nc2c3c(=O)n(C)c(=O)n2C)cc1 | -22.1%
CCN(Cc1nc(-c2ccc(C)cc2)no1)C(=O)c1ccco1 | 10.6%
COc1ccc(N(CC(=O)NCCSCc2ccco2)S(=O)(=O)c2ccccc2)cc1Cl | 1.48%
CCn1ncc(/C=N\NC(=O)COc2cc(C)cc(C)c2)c1C | 1.65%
CSc1ccccc1C(=O)Nc1cc(C)cc(C)c1 | 2.15%
O=c1n(Cc2ccc(Cl)cc2)c2sc3c(c2c2ncnn12)CCCC3 | -39.1%
C[C@@]12CCC[C@@](C)(C(=O)O)C1CC[C@@]13C[C@@H](NCc4ccccc4)[C@@](C)(CCC12)C3 (some centres unmarked) | 5.04%
O=C(c1ccc(CS(=O)c2ccccc2Cl)o1)N1CCN(c2ccccn2)CC1 (centres unmarked) | -42.5%
O=C(c1ccc(Cl)c(S(=O)(=O)N2CCCC2)c1)N1CCCCC1 | 3.08%
O=c1[nH]c(-c2ccc3c(c2)OCO3)nc2c1sc(=S)n2-c1ccccc1 | 15.4%
CCOc1ccc(NS(=O)(=O)c2cc(NC(=O)c3cccc(C)c3)ccc2Cl)cc1 | 8.35%
CC(/C=C/C=C/c1ccccc1)=N/NC(=O)c1ccc2c(c1)OCCO2 | 7.79%
Cc1ccc(N(CC(=O)NCC2CCCO2)C(=O)Cn2nnc(-c3cccs3)n2)cc1 (centres unmarked) | -24.9%
CC(C)c1nc2scc(-c3ccc(Cl)cc3)c2c(=O)n1N | -16%
OCC1(Cc2ccc(Cl)cc2)CCN(Cc2ccc(F)c(F)c2)CC1 | -68.6%
O=C1NCCCC1C(=O)N/N=C/c1ccccc1 (centres unmarked) | -4.35%
Cl.O=C(CNC1=NCCC1)c1ccc2c(c1)OCCO2 | 3.43%
